In the supplement of paper PMC3334620:
Over roughly 33,000 sequences, “E-score (-0.5 to 0.5)” has its median near -0.054; the highest 2% begin near 0.39. This is one part of the list.

Each sequence was assayed against Ylr278c (UniProt Q05854) (assay: PBM E-score (8-mer binding enrichment) (E-score (-0.5 to 0.5)); higher = stronger / more preferred TF binding; most listed sequences are background and not binding sites). Conditions: protein concentration: 200 nM; construct: GST-DNA-binding domain.
Experimental: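 Universal 'all 10-mer' protein binding microarrays (Agilent AMADID 015681) probed with GST-tagged S. cerevisiae TFs (full-length or DBD) made by in vitro transcription/translation (PURExpress), about 100-200 nM. Bound TF was detected with fluorescent anti-GST. Each ungapped 8-mer (which stands for itself and its reverse complement) is scored by the PBM enrichment score (E-score), a modified Wilcoxon-Mann-Whitney statistic from -0.5 to +0.5, computed with the Universal PBM Analysis Suite. Scale: above 0.35 generally sequence-specific binding.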

| Sequence | PBM E-score |
| --- | --- |
| CAGGGTCA | -0.0682 |
| CAAGGTGG | 0.0341 |
| CACAACGA | 0.121 |
| CCTTGTGA | -0.0667 |
| CGCTGCCC | 0.0603 |
| CGGTTTCA | 0.186 |
| AGCTAAGG | -0.135 |
| ACCACCAC | -0.0464 |
| AGAAATTC | 0.0638 |
| AAATCGCA | 0.0305 |
| CAGTGCCG | 0.235 |
| GCAGATTA | 0.0757 |
| AATTATTC | 0.128 |
| CGGGGTAG | 0.277 |
| AAAGCTTT | 0.154 |
| AAAACAGT | 0.0976 |
| ACAGCCCG | 0.0886 |
| ATAGTCTC | -0.0855 |
| ACTCAGAC | -0.249 |
| AGTACGGA | 0.303 |
| AGTCTGAA | -0.292 |
| ACGCCTTG | -0.162 |
| AGAGAGAA | -0.242 |
| AAAAGGCC | 0.0509 |
| CTGATGGA | -0.125 |

| Sequence | PBM E-score |
| --- | --- |
| CAATAAAA | -0.151 |
| CCGGCTGC | 0.309 |
| AATCTCTG | -0.198 |
| AGAGGAAA | 0.0225 |
| CTGTAGAA | -0.131 |
| GAGTCAGA | -0.00395 |
| AACTCCGA | 0.496 |
| ACTAACAG | -0.116 |
| CCAATTAA | -0.0658 |
| AAAAACGG | 0.201 |
| AGTGTTAA | -0.0911 |
| CCGTTATA | 0.0394 |
| ACACAGAG | -0.157 |
| AGGACAAT | -0.0381 |
| ATGCATTA | -0.0272 |
| GATAGCAA | 0.0259 |
| ACTGAGCC | 0.00565 |
| ACAACGCG | 0.118 |
| GAGTGTAA | -0.188 |
| AGGGAACC | -0.0743 |
| CGATCCTA | -0.0225 |
| GAGCTCGC | 0.158 |
| AAGGAAAA | -0.0186 |
| CCAGTATC | -0.0393 |
| AAGGCGGC | 0.0194 |

| Sequence | PBM E-score |
| --- | --- |
| AGGGCAAT | 0.0285 |
| AACTTAAT | 0.0755 |
| ACATAGTA | -0.226 |
| AACATATG | -0.115 |
| AGGGTAAA | -0.0838 |
| CCAATCAA | 0.0292 |
| CTATGCGA | -0.165 |
| CCTTGAGA | -0.123 |
| ACCAGATC | -0.0417 |
| CATGACCA | -0.318 |
| ATAATCAT | -0.0336 |
| CCCGTGCG | 0.182 |
| GGCTAGCA | -0.0267 |
| ATCGAACG | -0.0875 |
| AAATATGA | -0.0874 |
| ATGACGCC | -0.141 |
| ACCTACCT | 0.0257 |
| ACATCTGC | -0.197 |
| GGTGTCGA | -0.192 |
| CTGAGGAC | 0.0445 |
| AGAACAGG | -0.0371 |
| CATAATCC | -0.017 |
| TTGTTAAA | 0.00886 |
| GCGCAGTA | 0.0804 |
| GATCGTCC | 0.0365 |

| Sequence | PBM E-score |
| --- | --- |
| ACTACGTC | -0.0801 |
| CTTGCCCC | -0.0221 |
| GAATGGGA | -0.0214 |
| ATATCTTC | 0.125 |
| CACGGTTC | -0.233 |
| CCGAATTA | 0.256 |
| AAGCACCC | -0.161 |
| AAGCCTCT | -0.36 |
| AAGGTGAG | -0.106 |
| AAGCTGCA | -0.196 |
| CAAATTGA | -0.128 |
| TACGAACA | -0.171 |
| CAACCTCA | -0.251 |
| CGGAAGAA | 0.36 |
| CTACTGCC | -0.168 |
| GCCCTTGA | -0.2 |
| CCCGCAAC | 0.24 |
| TAGATGAA | -0.0861 |
| ACGCTAGT | -0.0423 |
| CGGTGGCC | 0.161 |
| AAAAACTG | -0.147 |
| CGGCAGGA | 0.182 |
| GAGGCTAA | 0.0333 |
| GAGGTGCC | 0.104 |
| GGGAATGA | 0.152 |

| Sequence | PBM E-score |
| --- | --- |
| GCCACTTA | -0.127 |
| TACGACTA | -0.202 |
| ATCTATTG | -0.0701 |
| AGACGCGG | 0.205 |
| CCCCACTA | -0.0146 |
| CAGCATAC | -0.217 |
| CAGAGCTC | -0.034 |
| GCGCGACA | 0.263 |
| GCACCAAC | 0.102 |
| GAGTTACC | 0.0153 |
| ACGGTTCA | -0.11 |
| ACGGGCTC | -0.00295 |
| AGGCACAA | -0.0607 |
| AGAGATCT | -0.228 |
| GAACCGTC | -0.016 |
| GATGTTCA | -0.0894 |
| GACGGTCC | 0.137 |
| ACAAGTTG | 0.0314 |
| AACAAACA | 0.0134 |
| AAATTTAG | 0.07 |
| GCCAACGA | -0.181 |
| CCGGAGCG | 0.458 |
| CAACGGGC | 0.104 |
| CCTGCGTC | -0.0875 |
| CTGTTATA | -0.159 |

| Sequence | PBM E-score |
| --- | --- |
| ACGACGAG | -0.342 |
| AAGCTATT | -0.149 |
| GATTGTAA | -0.0147 |
| AAACGGAG | 0.356 |
| CAACTTAG | 0.0176 |
| CTACGCCA | -0.217 |
| CCGAAGTC | 0.276 |
| GCACACCC | -0.231 |
| ACTACGCT | -0.0389 |
| TGCATCCA | -0.0927 |
| TCAGGGCA | -0.256 |
| TCTGTTAA | -0.204 |
| AAACCCCT | -0.0292 |
| ATTAGAAC | 0.18 |
| ACATGAGA | -0.00545 |
| AGCACGCA | -0.286 |
| GGTAAGCA | -0.102 |
| ACGGGTTG | -0.138 |
| ATGGGCGC | 0.0118 |
| AATCTGAG | -0.171 |
| CTTTAAAA | 0.0433 |
| GTGCCCAA | -0.104 |
| GAGTATAC | 0.00253 |
| CAATACGA | -0.0571 |
| ACGGTCTG | -0.182 |

| Sequence | PBM E-score |
| --- | --- |
| CAGCTACA | -0.138 |
| GCCTTGCC | 0.0699 |
| GACTAAGC | 0.0881 |
| CGTTAATA | 0.0801 |
| ATTAAGTA | 0.0373 |
| GGGACAAC | -0.104 |
| CGGTTAGC | 0.0365 |
| TATGACAA | -0.122 |
| CAATCAGG | -0.166 |
| GCCGGCCC | 0.248 |
| CAAGCTTA | 0.0597 |
| GACTGTCC | 0.00299 |
| GGGAAAAC | 0.132 |
| ACCATTCG | -0.145 |
| CGTAAGTC | 0.0349 |
| ATTGCAAA | 0.0864 |
| ATTTGTTG | 0.0269 |
| ACTAGTCT | -0.3 |
| AATGGAGA | 0.0569 |
| AGGCAAAG | -0.262 |
| CGGTAGGA | 0.0643 |
| GACCCTGC | 0.0498 |
